# Where two headings read alike, the source gives them in different places.
# What was measured:
# human LTRPC2 protein [1] = settings: for 86Rb+ residual activity: DPQ 100 μmol/liter, 3-aminobenzamide 1 mmol/liter, nicotinamide 1 mmol/liter, versus control without activator; for IC50: read-out: IC50 value of the human LTRPC2 protein inhibition, method of Example 7, varied amounts of the inhibitors
# human LTRPC2 protein [2] = assay type: cell-based; settings: H2O2 0.06%
# Experimental: In this case, the aforementioned operation was carried out in accordance with the protocol attached to the aforementioned reagent for transfection and the known method (reference 1).
# Activation of LTRPC2 in the thus obtained transformed cells (1.6×10^5 cells) was measured using a method measuring efflux of Rb^+ ion. The method was carried out in the same manner as in Example 6. In this case, however, H2O2 (final concentration=0.06%) was used as the PARP activator, and cells in which the LTRPC2 protein alone obtained in Example 5 was expressed were used as the control.
# [3] = test system: MIN6B cell expressing human LTRPC2 protein; assay: MTT Assay: cell death by streptozotocin stimulation in MIN6B cells expressing human LTRPC2 protein; assay type: cell-based; settings: streptozotocin 1 mM, overnight
# [4] = in the presence of MNNG 1 mmol/liter
Molecule,86Rb+ residual activity (human LTRPC2 protein [1]; in the presence of H2O2 0.06%) [%],86Rb+ residual activity (human LTRPC2 protein [1]; [4]) [%],IC50 (human LTRPC2 protein [1]) [µM],residual activity of 86Rb+ in comparison with control cells not expressing the mutant (human LTRPC2 protein [2]),absorbance in LTRPC2-expressing cells in comparison with vector-alone cells [3] [%]
NC(=O)c1cccc(N)c1 [3-aminobenzamide],91.9,96.2,117,–,–
"O=C1NCCc2c(OCCCCN3CCCCC3)cccc21 [DPQ, 3,4-dihydro-5-[4-(1-piperidinyl)butoxy]-1(2H)-isoquinolinone]",93.4,95.5,0.2,–,–
NC(=O)c1cccnc1 [nicotinamide],57.8,95.9,541,–,–
"PARP-1 dominant negative mutant: human PARP-1 DNA binding region (positions 1 to 374), amino acid sequence SEQ ID NO:20, co-expressed in cells",–,–,–,significantly increased,–
CN(N=O)C(=O)N[C@H]1C(O)O[C@H](CO)[C@@H](O)[C@@H]1O (mixture of isomers) [streptozotocin],–,–,–,–,93
